Data on 31 sequences can be found in publication PMC5700166.

This is a selection; strong and weak results do not stand in their true shares. The list includes weakly bound sequences.

The first assay concerns the target T1, GST-Co-NF-kB (UniProt F1ARL5).
T1 sequence: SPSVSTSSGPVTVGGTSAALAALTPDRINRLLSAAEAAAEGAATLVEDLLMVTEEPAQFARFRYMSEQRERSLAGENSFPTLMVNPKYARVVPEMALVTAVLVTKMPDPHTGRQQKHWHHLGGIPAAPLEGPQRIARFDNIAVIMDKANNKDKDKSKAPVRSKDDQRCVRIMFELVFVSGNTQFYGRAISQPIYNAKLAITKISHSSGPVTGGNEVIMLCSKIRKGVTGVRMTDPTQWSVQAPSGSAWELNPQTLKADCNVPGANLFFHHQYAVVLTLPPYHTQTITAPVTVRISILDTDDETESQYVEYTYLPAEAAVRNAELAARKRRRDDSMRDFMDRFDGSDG
The assay is described as follows: protein-binding microarray (PBM). The following applies: PBM: ~300 nM protein, 6 mM HEPES pH 7.8, 80 mM KCl, 0.5 mM EDTA, 0.5 mM EGTA, 6% glycerol, 35 ng/ul poly-dIdC, 1% milk, 1 h, room temperature; high values mean tight binding; double strand, one strand shown.
On to “CCGATTAACATCAAGTTCCCCCATGATGTTAATCGGGTCTTGATTCGCTTGACGCTGCTG”, for which the binding signal amounted to 10.1 z-score. On the same count and under the same terms, the same measure for “CCGATTAACATCAGGCACTTCCCTGATGTTAATCGGGTCTTGATTCGCTTGACGCTGCTG”: -0.0599 z-score.

“CCGATTAACATCAGGGGGGAGACTGATGTTAATCGGGTCTTGATTCGCTTGACGCTGCTG”: the binding signal came out at 6.95 z-score. Same read-out and setting: the same measure for “CCGATTAACATCAGGGGCTTACCTGATGTTAATCGGGTCTTGATTCGCTTGACGCTGCTG”: 1.88 z-score; for “CCGATTAACATCAATTTACCCACTGATGTTAATCGGGTCTTGATTCGCTTGACGCTGCTG”: 2.34 z-score; for “CCGATTAACATCAGGGGGAATTATGATGTTAATCGGGTCTTGATTCGCTTGACGCTGCTG”: 9.25 z-score. Still for that read-out and setting: the same measure for “CCGATTAACATCAGGGTTCCCCATGATGTTAATCGGGTCTTGATTCGCTTGACGCTGCTG”: 5.37 z-score. Still for that read-out and setting: the same measure for “CCGATTAACATCAGGGGGCACCCTGATGTTAATCGGGTCTTGATTCGCTTGACGCTGCTG”: 2.17 z-score; for “CCGATTAACATCAAGTCTCCCCCTGATGTTAATCGGGTCTTGATTCGCTTGACGCTGCTG”: 8.63 z-score; for “CCGATTAACATCAAATTTCCCATTGATGTTAATCGGGTCTTGATTCGCTTGACGCTGCTG”: 3.32 z-score. Turning to “CCGATTAACATCAAATATACCCCTGATGTTAATCGGGTCTTGATTCGCTTGACGCTGCTG”, the binding signal came to 5.87 z-score. The same measure, in the same setting: the value for “CCGATTAACATCAAAGTTCCCCCTGATGTTAATCGGGTCTTGATTCGCTTGACGCTGCTG” was 11.3 z-score; that for “CCGATTAACATCAAATTCCCTTATGATGTTAATCGGGTCTTGATTCGCTTGACGCTGCTG” was 2.16 z-score. Take “CCGATTAACATCACCAAATCCCCTGATGTTAATCGGGTCTTGATTCGCTTGACGCTGCTG”: the binding signal came out at 3.02 z-score. In turn, “CCGATTAACATCAATTTCCCCCATGATGTTAATCGGGTCTTGATTCGCTTGACGCTGCTG” registered a binding signal of 10.7 z-score. In the case of “CCGATTAACATCAGAATTGCCCCTGATGTTAATCGGGTCTTGATTCGCTTGACGCTGCTG”, the binding signal was 1.95 z-score. On the same count and under the same terms, the value for “CCGATTAACATCAGGGAATTCGATGATGTTAATCGGGTCTTGATTCGCTTGACGCTGCTG” was 2.25 z-score; that for “CCGATTAACATCATAATTCCCCATGATGTTAATCGGGTCTTGATTCGCTTGACGCTGCTG” was 6.68 z-score. With “CCGATTAACATCAGGGAGAGCCCTGATGTTAATCGGGTCTTGATTCGCTTGACGCTGCTG”, the binding signal was 0.795 z-score. Still for that read-out and setting: the same measure for “CCGATTAACATCAATTTTCCCAATGATGTTAATCGGGTCTTGATTCGCTTGACGCTGCTG”: 3.99 z-score. The sequence “CCGATTAACATCAGGGGAAATACTGATGTTAATCGGGTCTTGATTCGCTTGACGCTGCTG” showed a binding signal of 8.2 z-score. As for “CCGATTAACATCAGGGGTAACACTGATGTTAATCGGGTCTTGATTCGCTTGACGCTGCTG”, the binding signal came to 4.28 z-score. Consider “CCGATTAACATCAAACTTCCCCTTGATGTTAATCGGGTCTTGATTCGCTTGACGCTGCTG”, for which the binding signal was 5.46 z-score. As for “CCGATTAACATCAGGGGGGAATATGATGTTAATCGGGTCTTGATTCGCTTGACGCTGCTG”, the binding signal turned out to be 10.2 z-score. Same read-out and setting: the value for “CCGATTAACATCAAGGGGGGGGATGATGTTAATCGGGTCTTGATTCGCTTGACGCTGCTG” was 7.64 z-score; that for “CCGATTAACATCAGGGGGAAACATGATGTTAATCGGGTCTTGATTCGCTTGACGCTGCTG” was 10.9 z-score.

A further assay deals with T2, GST-Dm-Relish (UniProt Q94527).
T2 sequence: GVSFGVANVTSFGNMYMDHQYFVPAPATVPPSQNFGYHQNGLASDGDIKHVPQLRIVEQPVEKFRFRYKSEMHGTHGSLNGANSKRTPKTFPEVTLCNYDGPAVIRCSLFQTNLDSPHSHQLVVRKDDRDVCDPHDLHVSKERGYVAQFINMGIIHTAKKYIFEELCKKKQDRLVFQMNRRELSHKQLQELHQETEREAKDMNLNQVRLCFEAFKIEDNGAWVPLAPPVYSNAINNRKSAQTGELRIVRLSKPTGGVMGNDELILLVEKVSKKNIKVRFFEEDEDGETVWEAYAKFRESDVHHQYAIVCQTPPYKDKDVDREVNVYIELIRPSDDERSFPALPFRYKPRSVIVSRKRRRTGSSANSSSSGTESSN
As to the kind of experiment: protein-binding microarray (PBM). The following applies: PBM: ~300 nM protein, 6 mM HEPES pH 7.8, 80 mM KCl, 0.5 mM EDTA, 0.5 mM EGTA, 6% glycerol, 35 ng/ul poly-dIdC, 1% milk, 1 h, room temperature; Ap Aiptasia and Nv Nematostella (sea anemones) / Co Capsaspora / Aq Amphimedon (sponge) / Dm Drosophila / Hu human; RHD is the Rel homology domain; high values mean tight binding; most listed sequences are background and not binding sites; double strand, one strand shown.
Regarding “CCGATTAACATCAGTATTCCCCATGATGTTAATCGGGTCTTGATTCGCTTGACGCTGCTG”, the binding signal stood at 4.54 z-score.

Turning to “CCGATTAACATCACCAGTTTCCCTGATGTTAATCGGGTCTTGATTCGCTTGACGCTGCTG”, the binding signal was 0.665 z-score.

Consider “CCGATTAACATCAGGCATGCCCCTGATGTTAATCGGGTCTTGATTCGCTTGACGCTGCTG”, for which the binding signal came to 0.942 z-score. “CCGATTAACATCAGGGCATGCCCTGATGTTAATCGGGTCTTGATTCGCTTGACGCTGCTG” yielded a binding signal of 0.452 z-score. In turn, “CCGATTAACATCATTGTCCCTTCTGATGTTAATCGGGTCTTGATTCGCTTGACGCTGCTG” yielded a binding signal of 0.202 z-score.

“CCGATTAACATCAGGCACTTCCCTGATGTTAATCGGGTCTTGATTCGCTTGACGCTGCTG” registered a binding signal of 0.121 z-score.

“CCGATTAACATCAATTTACCCACTGATGTTAATCGGGTCTTGATTCGCTTGACGCTGCTG”: the binding signal is 0.809 z-score. Still for that read-out and setting: the value for “CCGATTAACATCAAATTTCCCATTGATGTTAATCGGGTCTTGATTCGCTTGACGCTGCTG” was 2.68 z-score; that for “CCGATTAACATCAAAGTTCCCCCTGATGTTAATCGGGTCTTGATTCGCTTGACGCTGCTG” was 8.65 z-score. As to “CCGATTAACATCATAATTCCCCATGATGTTAATCGGGTCTTGATTCGCTTGACGCTGCTG”, the binding signal came out at 4.84 z-score. The sequence “CCGATTAACATCAATTTTCCCAATGATGTTAATCGGGTCTTGATTCGCTTGACGCTGCTG” returned a binding signal of 1.29 z-score.

In turn, “CCGATTAACATCAGGGGTAACACTGATGTTAATCGGGTCTTGATTCGCTTGACGCTGCTG” returned a binding signal of 0.872 z-score. The same measure, in the same setting: the value for “CCGATTAACATCAGGGGGGAATATGATGTTAATCGGGTCTTGATTCGCTTGACGCTGCTG” was 5.21 z-score; that for “CCGATTAACATCAAGGGGGGGGATGATGTTAATCGGGTCTTGATTCGCTTGACGCTGCTG” was 5.31 z-score. Still for that read-out and setting: the same measure for “CCGATTAACATCAGGGGGAAACATGATGTTAATCGGGTCTTGATTCGCTTGACGCTGCTG”: 3.99 z-score.
